The record followed here is article PMC10191626.

By UniProt entry, the sequences of proteins in these tests, tags left out. Residues count along the entry.
UniProt P60953: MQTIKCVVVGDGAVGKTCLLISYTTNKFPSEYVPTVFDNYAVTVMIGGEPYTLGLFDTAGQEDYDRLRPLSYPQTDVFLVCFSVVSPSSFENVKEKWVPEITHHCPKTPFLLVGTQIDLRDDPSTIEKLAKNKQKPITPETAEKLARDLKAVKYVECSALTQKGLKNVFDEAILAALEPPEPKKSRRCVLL
UniProt Q13153, residues 70-117: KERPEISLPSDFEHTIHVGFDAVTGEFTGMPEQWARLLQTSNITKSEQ
UniProt Q92747: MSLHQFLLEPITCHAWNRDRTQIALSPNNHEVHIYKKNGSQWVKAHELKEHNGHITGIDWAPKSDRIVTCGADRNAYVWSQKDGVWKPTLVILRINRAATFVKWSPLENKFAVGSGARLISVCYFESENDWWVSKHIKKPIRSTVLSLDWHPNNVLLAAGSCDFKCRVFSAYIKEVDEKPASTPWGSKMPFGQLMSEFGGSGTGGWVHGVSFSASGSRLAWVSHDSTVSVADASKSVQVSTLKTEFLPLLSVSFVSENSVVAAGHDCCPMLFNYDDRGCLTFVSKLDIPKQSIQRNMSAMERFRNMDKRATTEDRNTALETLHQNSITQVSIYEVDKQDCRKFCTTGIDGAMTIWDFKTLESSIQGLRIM

Results are given in words; binding and its absence hold for the method and conditions named. For part of these data: In cells and extracts the contact can be indirect. Some results given as binding are weak or reduced against the parent protein; the word gives no strength.

Experiment [1] addresses CDC42, endogenous, active (GTP-bound), captured on PAK1-PBD beads (human (endogenous in HMEC, MDA-MB231, MCF7, MDA-MB468, Calu1, HT-29, HUVEC)) (UniProt P60953). Briefly: pull-down; active RAC1/CDC42 pull-down from cell lysates with GST-PAK1-PBD beads (Thermo Fisher kit Cat# 16118/19 or purified fusion beads), blots of the precipitate; cells with or without EGF (100 ng/ml, 15 min), ERK3 knock-down or knock-out, reconstitution with ERK3 WT or KD, or ARP3 S418D overexpression.

The target in experiment [2] is recombinant CDC42 protein (no tag) (UniProt P60953). The experiment in a line: ELISA; 100 ng/well of bait (RAC1, CDC42, ARP3 or ARP2/3 complex) coated in PBS pH 7.5; titrant ERK3 protein at 5, 10, 20 and 40 nM in 1% BSA/PBS, 2 hr at RT; detected with anti-GST or anti-ERK3 antibody; GST as negative control; both purified. (In general: An ELISA detects its analyte on a solid surface through an enzyme-linked reagent.)

In experiment [3] the target is GST-PAK1-PBD (pGEX2TK-PAK1 (70–117), p21-binding domain) fusion beads (UniProt Q13153). The experiment in a line: pull-down; GST-PAK1-PBD beads incubated with ERK3 (aa 9–327) or with CDC42 pre-loaded with GTPγS or GDP; blot and Ponceau S; both purified.
For experiment [4], the target named is GST-CDC42 (pGEX-2T-CDC42-WT) on glutathione beads (UniProt P60953). Briefly: pull-down; GST-RAC1 or GST-CDC42 WT beads incubated with ERK3 kinase domain (aa 9–327); both purified.
The target is the same in experiment [5]. The experiment in a line: pull-down; GST-RAC1 or GST-CDC42 on glutathione beads loaded with GTPγS or GDP, incubated with recombinant human ERK3 for 1 hr at 4°C in 25 mM Tris-HCl pH 7.2, 150 mM NaCl, 5 mM MgCl2, 1% NP-40, 5% glycerol; GST on beads as negative control; both purified.

For “V5-tagged kinase dead ERK3 (ERK3 KD, K49A/K50A) in shERK3 HMECs (from UniProt Q16659 1-721)”, the binding entry in experiment [1] is “binds”.
Same read-out and setting: to “ARPC1A, endogenous (HMEC) (from UniProt Q92747 1-370)” belongs “binds”.
Turning to “ERK3 (MAPK6), endogenous (from UniProt Q16659 1-721)”, the binding entry in experiment [1] is “binds”.
Consider “full-length GST-ERK3 (SignalChem, Cat# M31-34G) (from UniProt Q16659 1-721)”, for which, in experiment [2], the binding result is recorded as “binds”.
For “ERK3 kinase domain (aa 9–327) (Crelux) (from UniProt Q16659 9-327) (domain or fragment)”, the binding result in experiment [3] was “no binding”; in experiment [4] it was “binds”.
As to “recombinant CDC42 protein (no tag) (from UniProt P60953 1-191)”, the binding entry in experiment [3] was “binds”.
Take “V5-tagged wild type ERK3 (ERK3 WT) in shERK3 HMECs (from UniProt Q16659 1-721)”: in experiment [1], the binding result is on record as “binds”.
Take “recombinant human ERK3 protein (Cat# OPCA01714, Aviva Systems Biology) (from UniProt Q16659 1-721)”: the binding result in experiment [5] is recorded as “binds”.
